Reference: PubChem BioAssay AID1030 (National Center for Advancing Translational Sciences (NCATS), 2008)
Out of some 220,000 compounds screened, about 16,000 (7.3%) were called active. Inconclusive results, whose numbers are uncertain, are shown with a selection of clear calls. The call rests on the fitted dose curve; in most records, active means well fitted inhibition curve with a large enough effect (not every such curve was filed as active); inconclusive means small, poorly fitted or top-dose-only effect, or another doubt; inactive means no such curve, though single readings can be large or run the other way. Where the call is inconclusive, the potency comes from a doubtful curve fit.

target: Aldehyde dehydrogenase 1A1 (Homo sapiens) (UniProt P00352); test: qHTS Assay for Inhibitors of Aldehyde Dehydrogenase 1 (ALDH1A1); details: Purified ALDH1A1, NADH fluorescence, propionaldehyde substrate; series mostly up to 75.3 µM; activity, negative = inhibition: at the top concentration;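 on activity, negative = inhibition: plate controls were no enzyme wells and a reference inhibitor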
Potency means the concentration at half of the fitted maximal effect; tags describe the fitted curve by direction and shape.

Sequence of UniProt P00352 (P00352 whole entry, looked up): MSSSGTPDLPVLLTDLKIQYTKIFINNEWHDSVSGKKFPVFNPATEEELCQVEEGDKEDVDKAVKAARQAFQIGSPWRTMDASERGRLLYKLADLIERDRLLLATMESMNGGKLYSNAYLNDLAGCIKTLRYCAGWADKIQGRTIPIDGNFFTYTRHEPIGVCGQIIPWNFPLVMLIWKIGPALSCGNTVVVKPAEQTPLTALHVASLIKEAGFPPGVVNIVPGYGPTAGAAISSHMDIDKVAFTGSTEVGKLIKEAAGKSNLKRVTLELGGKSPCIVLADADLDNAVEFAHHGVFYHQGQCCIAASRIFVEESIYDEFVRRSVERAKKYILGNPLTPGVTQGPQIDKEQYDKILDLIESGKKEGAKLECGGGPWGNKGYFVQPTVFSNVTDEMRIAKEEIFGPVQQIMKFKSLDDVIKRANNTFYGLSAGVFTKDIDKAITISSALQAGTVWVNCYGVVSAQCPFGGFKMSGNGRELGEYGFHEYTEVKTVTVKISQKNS

Potency, active:
CN(C)c1ccc(/C=N\NC(=O)c2csnn2)cc1 1 µM, COc1cc2c(cc1NC(=O)CSc1nnc(Cc3cccs3)n1C)oc1ccccc12 14.1 µM, O=C(c1ccccc1)N1CCN(c2ccc(Cl)cc2)CC1 14.1 µM, COc1ccc(C2=NN(C(C#N)c3ccc(OC)cc3)C(c3ccccc3)C2)cc1 (stereo unspecified) 22.4 µM, COc1ccc(Nc2nc(N)nc(CSC(=S)N3CCC(C)CC3)n2)cc1 3.16 µM, CCCNS(=O)(=O)c1ccc(CCC(=O)NCc2ccco2)cc1 2.24 µM, CN(C)C(=S)c1ccc(N(C)C)cc1 0.794 µM, Cc1ccc(Cl)cc1Nc1nc(-c2sc(NC(=O)c3ccccc3)nc2C)cs1 20 µM

Potency, inconclusive:
COC(=O)CSc1nc2c(c(-c3ccc(C)o3)c1C#N)CCCC2 31.6 µM [inhibitor, single point], CCOc1ccc(/C=C2\SC(=O)N(CCNC(=O)C3COc4ccccc4O3)C2=O)cc1OC (stereo unspecified) 14.1 µM [inhibitor, partial curve], CCCCNC(=O)C(=O)N/N=C/c1ccc(OCC(=O)Nc2cccc(OC)c2)c(OC)c1 22.4 µM [inhibitor, partial curve], Cc1cc(C)c(C#N)c(OCC(=O)c2ccc(Br)cc2)n1 39.8 µM [inhibitor, single point], O=C(N1CCN(c2ccccn2)CC1)C(Cl)(Cl)Cl 0.15 µM [inhibitor, full curve, poor fit], Cc1ccc(S(=O)(=O)C(C#N)c2nc3ccccc3nc2OCCO)cc1 (stereo unspecified) 39.8 µM [inhibitor, single point], Cc1cc(C#N)c(SCC(N)=O)nc1-c1ccc(F)cc1 31.6 µM [inhibitor, partial curve], O=C(O)/C=C/c1ccc(-c2cccc(C(F)(F)F)c2)o1 39.8 µM [inhibitor, single point], C/C(CC(=O)Nc1ccc(N(C)C)cc1)=N\NC(=O)c1ccccn1 39.8 µM [inhibitor, single point], Cc1ccc(C2c3c(oc4ccccc4c3=O)C(=O)N2CCCN2CCOCC2)o1 (stereo unspecified) 31.6 µM [inhibitor, single point], CC(C)Cn1c(-c2cccs2)nc2ccccc21 28.2 µM [inhibitor, partial curve], O=C(O)Cc1ccc(NS(=O)(=O)c2ccccc2Cl)cc1 8.91 µM [inhibitor, single point], Cc1nn2c(N3CCCC3)cc(C(C)C)nc2c1-c1ccccc1 35.5 µM [inhibitor, single point], Cc1ccc(S(=O)(=O)N(C)/C(=N/S(=O)(=O)c2ccccc2)c2ccccc2)cc1 17.8 µM [inhibitor, partial curve], CC1=NN(c2nc(-c3ccc(C)cc3)cs2)C(=O)C1N=Nc1ccccc1O (stereo unspecified) 25.1 µM [inhibitor, single point], COc1cc(C(=O)Nc2sc(C)c(C)c2C(=O)O)cc(OC)c1OC 35.5 µM [inhibitor, single point], O=C1NC(c2ccc3c(c2)OCO3)Nc2ccccc21 (stereo unspecified) 35.5 µM [inhibitor, partial curve], COc1ccccc1C1=NNC(=NCc2ccccc2)SC1 35.5 µM [inhibitor, single point], O=c1[nH]c2ccc(NC(=S)Nc3ccc(F)cc3)cc2[nH]1 39.8 µM [inhibitor, single point], O=C(CSc1nnc(NC(=O)C2CCC2)s1)Nc1ccc(N2CCOCC2)cc1 39.8 µM [inhibitor, single point], CN1c2cccc3cccc(c23)N(C)C1(C)C 31.6 µM [inhibitor, partial curve], COc1ccc(-c2cc(C(=O)N3CCN(c4ccccc4)CC3)c3ccccc3n2)cc1OC 25.1 µM [inhibitor, partial curve], Cc1cc(=O)oc2cc(OCC(=O)N/N=C/c3ccccc3[N+](=O)[O-])ccc12 14.1 µM [inhibitor, partial curve], Cc1ccccc1OCC(=O)Nc1ccccc1N1CCOCC1 37.7 µM [inhibitor, single point], Cc1ccc(CCn2c3c(c4ccccc42)CN(C)CC3)cn1 39.8 µM [inhibitor, single point], COc1ccc(-c2nc(C(=O)N3CCN(C)CC3)sc2-c2ccc(OC)cc2)cc1 28.2 µM [inhibitor, partial curve], OCCC1CN(Cc2nc3ccccc3s2)CCN1CCc1ccccc1 (stereo unspecified) 28.2 µM [inhibitor, single point], COc1c(C=O)c(=O)[nH]c2c(OC)cccc12 20 µM [inhibitor, partial curve], CC(=O)N1CCN(C(=S)Nc2cc(S(=O)(=O)N3CCOCC3)ccc2Cl)CC1 37.7 µM [inhibitor, single point], Cc1cc(C)c(NC(=O)c2cn3c4c(c(N5CCN(C)CC5)c(F)cc4c2=O)OCC3C)c(C)c1 (stereo unspecified) 12.6 µM [inhibitor, partial curve, poor fit], Cc1ccccc1-c1cc(N(C)Cc2ccco2)ncn1 28.2 µM [inhibitor, partial curve], COC(=O)c1[nH]c2ccc(C)cc2c1NC(=O)NC1CCCCC1 3.98 µM [inhibitor, partial curve], COc1ccc(N=CC2=C(O)CCCC2=O)cc1 31.6 µM [inhibitor, single point], Cc1cc(/C=N\NC(=O)CC(=O)NC2CCCCC2)c(C)n1-c1ccc(Cl)cc1 39.8 µM [inhibitor, single point], CCn1c(SCC(=O)Nc2ccc(Cl)cc2)nnc1C1CC1 28.2 µM [inhibitor, single point], CC(C)CCNC(=O)C(NS(=O)(=O)c1ccc2c(c1)c(=O)n(C)c(=O)n2C)c1ccccc1 (stereo unspecified) 0.891 µM [inhibitor, single point], CO/N=C(\C)CCN1CCCc2nc(C)c(C)cc21 3.55 µM [inhibitor, partial curve], COCc1cc(C)nc(NCCc2ccccc2)c1C#N 25.1 µM [inhibitor, partial curve], Cc1noc(C)c1-c1cncnc1Nc1ccccc1 44.7 µM [inhibitor, single point], COc1cc(O)ccc1/C=N/NC(=O)c1ccc([N+](=O)[O-])cc1 3.98 µM [inhibitor, full curve], CCOC(=O)C(Cc1ccccc1)NC(=O)CCc1c(C)nc2nc(C)nn2c1C (stereo unspecified) 20 µM [inhibitor, partial curve], COc1cc(Cc2nc3ccc(S(=O)(=O)N4CCOCC4)cc3[nH]2)cc(OC)c1OC 39.8 µM [inhibitor, single point], COc1ccc(/C=C/C(=O)N(c2ccccn2)C2CCCCC2)cc1OC 39.8 µM [inhibitor, single point], COc1ccc2c(c1)C(=O)[C@@H](OC(=O)NCc1ccco1)[C@H](c1ccc(OC)c(Br)c1)O2 39.8 µM [inhibitor, single point], CCOC(=O)c1ccc(CNC(=O)CSc2nnc(-c3ccncc3)o2)cc1 28.2 µM [inhibitor, single point]

activity, negative = inhibition, inactive:
CN(C)CCNC(=S)Nc1ccc(Cl)cc1 -2.13%, Cc1ccc(S(=O)(=O)N2CCC(=O)N(CCOCc3cccc(C(F)(F)F)c3)CC2)cc1 -5.97%, O=C1c2ccc(Br)cc2C(=O)N1c1ccc(Cc2ccncc2)cc1 10.6%, O=c1c(Cl)c(NC2CC2)cnn1-c1ccccc1 3.08%, Cc1nc(Cl)c2oc3ccccc3c2n1 -6.54%, COc1cc(NS(=O)(=O)c2ccc(NC(=S)NC(=O)CC(C)C)cc2)nc(OC)n1 -18.3%, CC(C)(C)C(=O)NC(=S)NNC(=O)c1ccc(-c2ccccc2)cc1 -0.767%, N#CC1=C(N)N2C(=C(C#N)C1c1cccc(Br)c1)Nc1ccccc12 (stereo unspecified) -7.64%, Cc1nc2ccccc2c(=O)[nH]1 5.71%, CC1CCCC(C)N1C(=O)c1cccc2c1-c1ccccc1/C2=N/O (stereo unspecified) 6.68%, C1=C(CCNC2=NCCCCC2)CCCC1 14.6%, Cc1cc(NC(=O)CSCC(=O)N(c2ccc(F)cc2)C(C(=O)NC2CCCCC2)c2ccc(O)c(O)c2)no1 (stereo unspecified) -14.5%, CCCCCNc1nc(N2CCCC2)c2c(c1C#N)CCN(C)C2 -8.34%, CCOc1ccccc1C(=O)Nc1nncs1 -5.35%, COc1ccccc1N1CCN(C(=O)Cc2cccs2)CC1 -1.48%, O=C(N=Nc1c(O)[nH]c2ccccc12)c1cc(-c2ccc(F)cc2)n[nH]1 -2.65%, CCS(=O)(=O)c1c([N+](=O)[O-])ncn1C -2.41%, NC(=O)CC[C@@H]1NC(=O)[C@H](Cc2ccccc2)NC(=O)[C@H](Cc2ccc(O)cc2)NC(=O)[C@@H](N)CSSC[C@@H](C(=O)N2CCC[C@H]2C(=O)N[C@@H](CCCN=C(N)N)C(=O)NCC(N)=O)NC(=O)[C@H](CC(N)=O)NC1=O 2.18%
